# Out of some 420,000 compounds screened, about 50,000 (12%) were called active. The inconclusive results got no clear call from the source; some entries with a clear call stand among them for comparison. The call rests on the fitted dose curve; in most records, active means well fitted inhibition curve with a large enough effect; inconclusive means small, poorly fitted or top-dose-only effect; inactive means flat fitted curve, though single readings scatter. Potencies of inconclusive entries are left out as doubtful fits.
# Test: qHTS for Inhibitors of human tyrosyl-DNA phosphodiesterase 1 (TDP1): qHTS in cells in presence of CPT; further: nearly all actives have a fitted effect of over 55% in size
# Conditions: chicken DT40 Tdp1-/-;hTDP1 cells + 20 nM CPT, ATP luminescence, 48 h; activity change, negative = growth inhibition: at 46.2 µM (top of the series) unless noted
# Summary of the method: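 Cell growth measured by CellTiter-Glo luminescence after a minimum 48 h, 37 C compound exposure with 20 nM CPT in Tdp1-knockout DT40 cells stably expressing hTDP1, seeded 400/well; qHTS titration format.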
# On the % scale 0 is the no-effect control and ±100 the full control effect; potency means the concentration at half of the fitted maximal effect; tags describe the fitted curve by direction and shape.
Compound,Potency,"activity change, negative = growth inhibition"
CCn1c(=O)c2cc(C(=O)N3CCN(c4cccc(OC)c4)CC3)sc2c2ccccc21,active: 18.4 µM,–
COc1cccc(NC(=O)c2ccccc2Oc2ccccc2)c1,inactive,–
Clc1ccccc1CSc1nnc(-c2ccco2)c(-c2ccco2)n1,"inconclusive [inhibitor, single point]",–
Cc1cc(C)c(C)c(S(=O)(=O)N2CCN(CC(=O)Nc3ccc([N+](=O)[O-])cc3)CC2)c1C,inactive,–
C[C@H]1CN([C@@H](C)CO)S(=O)(=O)c2ccc(-c3ccccc3)cc2O[C@H]1CN(C)C(=O)C1CCC1,"inconclusive [inhibitor, single point]",–
COc1cc(/C=C(\C#N)c2nc(-c3cc4ccccc4oc3=O)cs2)ccc1O,active: 18.4 µM,–
Cc1ccc(NC(=O)CN(C)S(=O)(=O)c2cccc3cccnc23)cc1F,"inconclusive [inhibitor, single point]",–
COc1ccc(S(=O)(=O)N2CCN(C)CC2)cc1NC(=O)c1ccccc1,inactive,–
O=C(Cc1ccc(NC(=O)C2CCN(C(=O)C3CCCC3)CC2)cc1)Nc1ccc(C(=O)N2CCOCC2)cc1,–,inconclusive: -6.03% [inhibitor]
Cc1sc2ncn(CC(=O)N3CCN(c4ccccc4)CC3)c(=O)c2c1S(=O)(=O)N1CCN(c2ncccn2)CC1,"inconclusive [inhibitor, partial curve]",–
COC(=O)c1ccc(/C=C/C(=O)c2cccc(OC)c2)cc1,"inconclusive [inhibitor, single point]",–
COc1cc2c(cc1OC)C(COc1cc(C)cc(C)c1)N(C(C)=O)CC2 (configuration not stated),"inconclusive [inhibitor, single point]",–
Cc1ccc(-c2nc3cc(NS(=O)(=O)c4ccc(C)cc4)ccc3o2)cc1,active: 14.1 µM,–
O=[N+]([O-])c1cc2oc3c(c2c(C=NCc2ccncc2)c1O)CCCC3,"inconclusive [inhibitor, single point]",–
CCc1ccc(C(c2ccccc2)c2c[nH]c3ccc(C)cc23)s1 (configuration not stated),"inconclusive [inhibitor, single point]",–
CC(C)OC(=O)c1ccc(NC(=O)c2cccc(-n3cnnn3)c2)cc1,"inconclusive [inhibitor, single point]",–
COc1ccc(-c2nc(CN3CCN(Cc4cccc(F)c4)CC3)c(C)o2)cc1,"inconclusive [inhibitor, single point]",–
CC(C)(CCc1ccccn1)C(=O)CCCc1ccccn1,"inconclusive [inhibitor, single point]",–
CC1(C(=O)NCc2ccc3c(c2)OCO3)CCN1C(=O)Cc1ccc(Cl)cc1Cl (configuration not stated),inactive,–
CCOC(=O)C1CCCN(C(=O)c2cc(COc3ccc(C)nc3)on2)C1 (configuration not stated),"inconclusive [inhibitor, single point]",–
Cc1ccc(OC(=O)c2cc(C)nn2C(C)(C)C)cc1,"inconclusive [inhibitor, single point]",–
Fc1ccc(C(Nc2ccccc2Cl)c2nnc(-c3ccccc3Cl)o2)cc1 (configuration not stated),"inconclusive [inhibitor, single point]",–
Cc1cccc(NC(=O)C2C3C=CC(O3)C2C(=O)O)c1C (configuration not stated),inactive,–

Compound,Potency,"activity change, negative = growth inhibition"
O=C(c1ccccc1-c1ccccc1)N1CCN(c2ccccn2)CC1,active: 3.26 µM,–
COc1ccc(/C=C/CN2CCN(CCc3ccccc3)C(CCO)C2)cc1 (configuration not stated),"inconclusive [inhibitor, single point]",–
CCOC(=O)C1=C(C)N(C)C(=S)NC1c1c(OCC)ccc2ccccc12 (configuration not stated),"inconclusive [inhibitor, single point]",–
O=C(/C=C\c1ccc(-c2ccccc2)o1)c1ccccc1,"inconclusive [inhibitor, single point]",–
O=C(CCSc1nc(-c2ccco2)cc(C(F)(F)F)n1)N1CCCc2ccccc21,"inconclusive [inhibitor, single point]",–
COc1ccccc1C(=O)N[C@@H]1c2ccccc2C2(CCN(Cc3cnn(C)c3C)CC2)[C@H]1O,"inconclusive [inhibitor, single point]",–
COC(=O)[C@@]1(Sc2ccc(C)cc2)CC(=O)N(c2ccccc2)[C@@H]1c1ccccc1,active: 18.4 µM,–
CCCCc1ccc(S(=O)(=O)NC(=O)C2(C)CCN2C(=O)c2cccc(F)c2)cc1 (configuration not stated),inactive,–
CC(C(=O)Nc1ccccc1C(F)(F)F)n1nnc2sc3c(c2c1=O)CCCC3 (configuration not stated),"inconclusive [inhibitor, single point]",–
O=C(N/C(=C\c1ccc(F)cc1)C(=O)N1CCOCC1)c1ccccc1,inactive,–
Cc1ccc(NC(=O)[C@H]2O[C@@H]3OC(C)(C)O[C@@H]3[C@H]3OC(C)(C)O[C@H]32)cc1F,"inconclusive [inhibitor, single point]",–
CC1(C)CC(=O)C=C(c2cccc(O)c2)C1=O,inactive,–
Cc1ccc(NC(=O)c2cccc(N3CCCS3(=O)=O)c2)cc1C,"inconclusive [inhibitor, single point]",–
CCOc1ccc2nc(SCC(=O)N3CCN(C(=O)c4ccco4)CC3)sc2c1,"inconclusive [inhibitor, partial curve]",–
CC(=O)OCCN1c2ccccc2Sc2cnccc21,"inconclusive [inhibitor, single point]",–
COc1ccc(CC(=O)Nc2ccc3c(C)cc(=O)oc3c2)cc1OC,inactive,–
COc1ccc(C(CNC(=O)c2cc3ccccc3cc2O)N2CCOCC2)cc1 (configuration not stated),"inconclusive [inhibitor, single point]",–
O=C(NCCn1cc(SCc2ccccc2F)c2ccccc21)c1cccs1,"inconclusive [inhibitor, single point]",–
C=C(C)C1Cc2c(C)nn(-c3ccccc3)c2C1 (configuration not stated),inactive,–
CCN(CC)CCNCC1C(=O)O[C@@H]2C[C@@]3(C)CCC[C@H](C)C3=C[C@H]12 (some centres not stated),"inconclusive [inhibitor, single point]",–
O=C(CSc1nc2ccccc2o1)Nc1nc(-c2ccccc2)c(-c2ccccc2)s1,active: 18.4 µM,–
Cc1ccc(NC2CCCN(C(=O)CCc3scnc3C)C2)cc1C (configuration not stated),"inconclusive [inhibitor, partial curve]",–
Cc1ccc2c(c1)C(c1ccccc1)N(C(=O)c1ccc(S(=O)(=O)N3CCCCC3)cc1)CC(=O)N2 (configuration not stated),"inconclusive [inhibitor, single point]",–

Compound,Potency,"activity change, negative = growth inhibition"
CCCCn1c(SCC(=O)N2CC(C)CC(C)C2)nc2cc(S(N)(=O)=O)ccc21 (configuration not stated),"inconclusive [inhibitor, single point]",–
COc1ccc(CN2CC[C@@H]3CN(C(C)=O)[C@H](c4ccccc4Br)C[C@@H]32)cc1,"inconclusive [inhibitor, single point]",–
Cc1oc(-c2ccc(Cl)cc2)nc1CS(=O)CC(=O)NCCCN1CC(C)CC(C)C1 (configuration not stated),"inconclusive [inhibitor, single point]",–
Cc1nnc(SCC(=O)NNC(=O)c2ccc(Br)cc2)n1C,inactive,–
CN(N=O)c1ccc(/C=C/c2ccnc3ccccc23)cc1,active: 7.94 µM,–
O=C(NC1CCCc2ccccc21)C1CCN(S(=O)(=O)c2cccc3nsnc23)CC1 (configuration not stated),"inconclusive [inhibitor, single point]",–
O=C1C=C(c2ccc(C(=O)O)cc2)C[C@@H](c2ccc(F)cc2)C1,inactive,–
Cn1c(Cn2c(=O)sc3ccccc32)nnc1SCc1cccc(F)c1,inactive,–
Oc1c(C(c2ccccc2)N2CCN(c3cccc(Cl)c3)CC2)sc2nc(-c3ccco3)nn12 (configuration not stated),"inconclusive [inhibitor, single point]",–
O=c1c2ccccc2nc(-c2ccc(Br)cc2)n1Cc1ccccc1,active: 8.2 µM,–
CC1CCN(CC(=O)Nc2ccc(S(=O)(=O)N3C(C)CCCC3C)cc2)CC1 (configuration not stated),"inconclusive [inhibitor, single point]",–
Cc1nc(N2CCN(C)CC2)c2sc(=S)n(-c3ccccc3)c2n1,"inconclusive [inhibitor, single point]",–
COc1cc(/C=C(/C(=O)c2cccs2)c2nc3ccccc3[nH]2)cc(OC)c1O,"inconclusive [inhibitor, single point]",–
O=S(=O)(c1ccc2c(c1)OCCO2)N1CCc2ccccc21,"inconclusive [inhibitor, partial curve, poor fit]",–
O=C(NC1CCCCC1)n1c(=O)oc2ccc(Cl)cc21,active: 11.6 µM,–
CCOC(=O)N1CCN(Cc2nc3cc(NC(=O)c4ccco4)ccc3n2CC)CC1,inactive,–
COc1ccccc1N1CCN(C(=O)CCc2ccc(S(=O)(=O)NCC(C)C)cc2)CC1,"inconclusive [inhibitor, single point]",–
C/C(=N\NC(=O)c1cc(O)ccc1O)c1cccc(NC(=O)c2ccc(Cl)cc2)c1,"inconclusive [inhibitor, single point]",–
Cc1ccc(NC(=O)c2cc3nc(-c4ccc5c(c4)OCO5)cc(C(F)(F)F)n3n2)cc1Cl,inactive,–
COC(=O)C1C(O)CC[C@H]2CN3CCc4c([nH]c5ccccc45)C3C[C@H]12 (some centres not stated),"inconclusive [inhibitor, single point]",–
O=C(NC1=NN(c2ccccc2)CC1)Nc1ccccc1F,"inconclusive [inhibitor, single point]",–

# From PubChem BioAssay AID686979 (National Center for Advancing Translational Sciences (NCATS), 2013)
